Laboratory results reported in the supplement of paper PMC12217912.
The list shows a part of the results. The full chains were built here from the parent and the listed change. Values near 0.05 are background.

B1: TEV protease; numbered along this chain (parent)
chain: MGESLFKGPRDYNPISSSICHLTNESDGHTTSLYGIGFGPFIITNKHLFRRNNGTLVVQSLHGVFKVKDTTTLQQHLVDGRDMIIIRMPKDFPPFPQKLKFREPQREERICLVTTNFQTKSMSSMVSDTSCTFPSGDGIFWKHWIQTKDGQCGSPLVSTRDGFIVGIHSASNFTNTNNYFTSVPKNFMELLTNQEAQQWVSGWRLNADSVLWGGHKVFMVKPEEPFQPVKEATQL

Variants of: B1
Assay: raw area under fraction-flipped curve 0-4 h after induction (AUC4h, not background-subtracted), DNA-recorder readout of cleavage of the substrate (dimensionless); higher = more cleavage of the substrate by the protease variant
Conditions: temperature: 34 °C; time window: 0-4 h after rhamnose induction
Description: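 In vivo DNA recorder in E. coli TOP10(DE3) ΔrhaA at 34 °C. Each TEVp single-site mutant (parent TEVp 0) is paired with a single-site variant of the 7-mer TEVs (canonical ENLYFQ|S). The substrate sits between flexible linkers in a Bxb1-sfGFP-TEVs-SsrA fusion, so cleavage stabilises Bxb1 and speeds flipping of a recombination array, read by NGS. The value is the raw area under the fraction-flipped curve over 0-4 h after rhamnose induction (AUC4h), with ≥20 reads per time point. It is not background-subtracted; inactive controls average about 0.047.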
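Further: Bxb1 expression induced with 0.2% (w/v) L-rhamnose at OD600 near 0.5, cultures sampled hourly, flipped fraction per protease–substrate barcode pair counted by paired-end Illumina sequencing.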

Variant	area with substrate ECLYFQS	area with substrate EGLYFQS	area with substrate EILYFQS	area with substrate ELLYFQS	area with substrate EMLYFQS	area with substrate EPLYFQS	area with substrate EQLYFQS	area with substrate ESLYFQS	area with substrate EVLYFQS	area with substrate EYLYFQS	area with substrate EDLYFQS	area with substrate EELYFQS	area with substrate EHLYFQS	area with substrate EKLYFQS	area with substrate ERLYFQS	area with substrate ETLYFQS	area with substrate EWLYFQS	area with substrate EFLYFQS
P14N	0.108	0.0828	0.0742	0.102	0.0811	0.0955	0.0961	0.0683	0.0843	0.0851	–	–	–	–	–	–	–	–
I15H	0.107	–	–	–	–	–	0.117	0.0985	0.0499	0.0553	0.129	0.141	0.108	0.102	0.1	0.116	–	–
S18E	0.0998	0.0953	0.0849	–	0.136	0.137	0.0998	0.103	0.0923	–	0.126	–	0.107	–	–	0.146	0.0861	–
S18W	0.0825	–	0.0899	0.0681	0.0575	–	0.0996	0.077	0.0829	0.0638	0.107	0.0962	0.0929	0.0881	0.0877	0.0921	0.0625	0.0892
I19M	0.132	0.0926	0.0914	0.091	0.12	0.121	0.115	0.114	0.0988	0.108	0.123	0.116	–	0.111	0.0738	0.08	0.0613	–
I19N	0.0959	0.0639	0.0739	–	0.076	–	0.087	0.08	0.0701	0.0764	0.0631	0.0701	0.0867	0.0636	0.118	0.0711	0.0726	–
C20P	0.0663	0.051	0.0615	0.0599	–	0.0653	0.0614	0.063	–	0.0389	0.0596	0.0626	0.0757	0.0484	0.0642	0.0534	0.0572	0.119
H21L	0.0907	0.0799	0.0943	0.0761	–	0.117	0.0858	0.0984	0.0996	0.0791	–	0.107	0.0693	0.0989	0.0912	0.103	0.0956	0.092
H21R	0.0621	0.0903	0.103	0.101	0.119	0.129	0.106	0.101	0.0855	–	0.108	0.143	0.0899	0.104	0.109	–	0.0829	0.105
T23H	0.0725	0.0819	0.0962	0.0849	0.0939	–	0.114	0.119	0.0985	–	–	0.0936	0.115	–	–	0.0937	0.083	0.0832
T23V	0.115	0.106	0.066	0.115	0.114	0.122	0.122	0.143	0.0941	0.117	0.123	0.133	–	0.126	0.108	0.131	0.0819	0.102
N24M	0.116	–	0.0851	–	0.0969	–	0.1	–	0.0778	–	–	0.116	–	0.0858	0.0979	0.098	–	–
E25D	0.0958	0.0936	0.107	0.0994	–	0.0997	0.145	0.108	0.0966	0.0955	–	–	–	0.105	0.115	0.0646	0.1	0.101
E25L	0.132	0.0396	0.0968	0.0878	0.0992	0.116	0.116	0.114	0.0921	0.101	–	0.126	0.0858	0.114	0.0994	0.132	0.1	–
E25V	0.107	0.0744	0.0881	–	0.122	–	0.0929	0.11	0.084	–	0.129	–	0.0719	0.101	0.104	–	0.105	0.116
S26D	0.0837	–	0.0929	–	0.0936	–	0.104	0.0904	0.0882	0.0789	0.104	0.0988	–	0.0865	0.0788	0.0961	–	–
D27L	0.0888	0.094	0.0943	0.0892	0.105	0.125	0.073	0.0956	0.0907	–	0.122	0.0939	0.118	0.0982	0.0685	0.0883	0.0687	–
G28F	0.0785	0.0796	–	0.0768	0.111	0.0972	0.0971	0.0973	0.0699	0.0607	0.147	0.103	–	0.0864	0.0799	–	0.0736	0.0938
G28K	0.0896	0.0665	0.0509	–	0.12	–	0.102	0.102	–	–	0.118	0.108	–	0.0901	0.0769	–	0.0787	–
H29S	0.11	–	0.0953	–	–	0.0356	0.14	0.124	0.123	–	–	–	–	–	0.0964	–	0.0625	–
H29V	0.128	–	0.072	0.099	0.144	–	–	0.135	–	0.11	0.148	–	0.153	0.113	0.104	0.11	0.107	–
T30N	0.0911	0.0549	0.0827	0.0861	0.0923	0.131	0.107	0.0986	0.0892	0.056	0.107	0.101	–	–	0.0796	0.0749	0.0885	–
T30Q	0.109	0.0816	–	0.0782	–	0.0642	0.133	0.0848	0.112	0.1	–	0.0984	0.104	–	0.104	–	–	–
T31D	0.114	–	0.11	0.096	0.131	0.113	0.113	0.118	0.0952	–	0.132	–	0.122	0.109	0.188	0.144	0.0837	–
T31S	0.117	0.084	0.0868	–	0.103	–	0.106	0.0916	0.105	0.0932	–	0.114	–	0.11	0.0908	0.109	0.144	0.0941
L33G	0.0966	0.16	0.0744	0.0956	0.127	–	0.107	0.166	0.0867	–	–	0.115	–	0.0616	0.0846	0.121	0.0909	–
